Assay results taken from the supplement of paper PMC10126150.
Values marked as one replicate rest on one cluster of the flow cell; about a third of the high ones do not repeat.

test system: ATP; test: switch fluorescence ratio, 500 uM ATP over buffer (Cy3 cluster intensity, sum of 5 cycles each) (fold (ratio)); higher = stronger signal-on switching upon ATP binding; sequences stand for … in TCGTCGGCAGCGTCAGATGTGTATAAGAGACAGTTTTTTTTTTTTTTTTTTTTTTTTT…TC; details: aptamer strand: ATP DNA aptamer (quencher-CACCTGGGGGAGTATTGCGGAGGAAGG + anchor), 100 nM annealed; ATP concentration: 500 uM; one replicate
Procedure, shortened: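 Cy3-labelled switching-strand clusters on a modified Illumina MiSeq flow-cell were annealed to 100 nM quencher-labelled ATP aptamer and imaged first in selection buffer, then after 15 min with 500 uM ATP at 22 °C. NaOH stripping and re-annealing separated each of five buffer/ATP cycles, and clusters outside 100-1000 RFU were excluded. The fluorescence ratio sums target-cycle Cy3 intensity over buffer-cycle Cy3 intensity per cluster and averages it per switch-domain sequence.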
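Note: ATP exposure 15 min at 22 °C before imaging.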

Question: How did the switch fluorescence ratio turn out when CAGTTCATTG was run?
Answer: 0.981

Question: How did the switch fluorescence ratio turn out when CAGTTCTAGC was run?
Answer: 0.968

Question: Which switch fluorescence ratio does the source give for CAGTTCTTTA here?
Answer: 1.01

Question: How did the switch fluorescence ratio turn out when CAGTTGGGGC was run?
Answer: 0.998

Question: For CAGTTGTGTA, which switch fluorescence ratio is on record?
Answer: 1.04

Question: For CAGTTTGAAA, which switch fluorescence ratio is on record?
Answer: 1.02

Question: With CATAAAGTGG as the sequence, how does the switch fluorescence ratio read?
Answer: 0.991

Question: CATAAATCCC was tested. Which switch fluorescence ratio did it give?
Answer: 0.997

Question: For CATAACAGCG, which switch fluorescence ratio is on record?
Answer: 0.988

Question: CATAACCTCG was tested. Which switch fluorescence ratio did it give?
Answer: 0.983

Question: For CATAACTAGT, which switch fluorescence ratio is on record?
Answer: 1

Question: Which switch fluorescence ratio does the source give for CATAAGAGAT here?
Answer: 1.03

Question: Which switch fluorescence ratio does the source give for CATAAGCACC here?
Answer: 1.42

Question: Which switch fluorescence ratio does the source give for CATAAGTACG here?
Answer: 1.3

Question: How did the switch fluorescence ratio turn out when CATAATGCTA was run?
Answer: 1

Question: CATAATTATT was tested. Which switch fluorescence ratio did it give?
Answer: 1

Question: How did the switch fluorescence ratio turn out when CATACCCATG was run?
Answer: 0.98

Question: Which switch fluorescence ratio does the source give for CATACGATTA here?
Answer: 1.06

Question: Which switch fluorescence ratio does the source give for CATACGGTCG here?
Answer: 1.06

Question: How did the switch fluorescence ratio turn out when CATACTACAC was run?
Answer: 1.34

Question: With CATACTATGG as the sequence, how does the switch fluorescence ratio read?
Answer: 1.04

Question: Which switch fluorescence ratio does the source give for CATAGAAAGT here?
Answer: 1

Question: CATAGAATCT was tested. Which switch fluorescence ratio did it give?
Answer: 1.01

Question: How did the switch fluorescence ratio turn out when CATAGACCTG was run?
Answer: 1

Question: CATAGACGGC was tested. Which switch fluorescence ratio did it give?
Answer: 0.986

Question: For CATAGCATCG, which switch fluorescence ratio is on record?
Answer: 1.18

Question: For CATAGGAC, which switch fluorescence ratio is on record?
Answer: 0.985

Question: CATAGGTCAG was tested. Which switch fluorescence ratio did it give?
Answer: 1.03

Question: For CATAGGTGG, which switch fluorescence ratio is on record?
Answer: 0.984

Question: How did the switch fluorescence ratio turn out when CATAGTACGG was run?
Answer: 1.04

Question: How did the switch fluorescence ratio turn out when CATAGTTGTA was run?
Answer: 0.977

Question: How did the switch fluorescence ratio turn out when CATAGTTTTG was run?
Answer: 0.989

Question: How did the switch fluorescence ratio turn out when CATATACGGA was run?
Answer: 1.07

Question: With CATATATCAC as the sequence, how does the switch fluorescence ratio read?
Answer: 1.04

Question: CATATATGAG was tested. Which switch fluorescence ratio did it give?
Answer: 1.02

Question: For CATATGCCAG, which switch fluorescence ratio is on record?
Answer: 0.918

Question: Which switch fluorescence ratio does the source give for CATATGCCTC here?
Answer: 1.02

Question: For CATATGGAGC, which switch fluorescence ratio is on record?
Answer: 0.992

Question: For CATCAACTA, which switch fluorescence ratio is on record?
Answer: 1.01

Question: CATCAAGTGC was tested. Which switch fluorescence ratio did it give?
Answer: 1.19

Question: With CATCAATGCT as the sequence, how does the switch fluorescence ratio read?
Answer: 1.36

Question: For CATCACCA, which switch fluorescence ratio is on record?
Answer: 0.999

Question: CATCAGTCCG was tested. Which switch fluorescence ratio did it give?
Answer: 0.848

Question: How did the switch fluorescence ratio turn out when CATCATGGG was run?
Answer: 1.02

Question: Which switch fluorescence ratio does the source give for CATCATTTAC here?
Answer: 1.17

Question: With CATCATTTTC as the sequence, how does the switch fluorescence ratio read?
Answer: 1.03

Question: For CATCCAAGG, which switch fluorescence ratio is on record?
Answer: 1.14

Question: CATCCCATGA was tested. Which switch fluorescence ratio did it give?
Answer: 1.07

Question: Which switch fluorescence ratio does the source give for CATCCCGCCT here?
Answer: 1.42

Question: For CATCGGGGAA, which switch fluorescence ratio is on record?
Answer: 1.02

Question: How did the switch fluorescence ratio turn out when CATCTACGGG was run?
Answer: 1.09

Question: For CATCTATGAA, which switch fluorescence ratio is on record?
Answer: 1.01

Question: Which switch fluorescence ratio does the source give for CATCTCACGG here?
Answer: 0.995

Question: Which switch fluorescence ratio does the source give for CATCTCCCGT here?
Answer: 1.02

Question: With CATCTCGGGA as the sequence, how does the switch fluorescence ratio read?
Answer: 0.989

Question: With CATCTGGCGT as the sequence, how does the switch fluorescence ratio read?
Answer: 1.02

Question: How did the switch fluorescence ratio turn out when CATCTTAATC was run?
Answer: 1.06

Question: With CATCTTG as the sequence, how does the switch fluorescence ratio read?
Answer: 1.01

Question: CATGAAACTG was tested. Which switch fluorescence ratio did it give?
Answer: 0.932

Question: Which switch fluorescence ratio does the source give for CATGAACCGG here?
Answer: 1.02

Question: For CATGAATTGC, which switch fluorescence ratio is on record?
Answer: 1.04

Question: CATGACTCAG was tested. Which switch fluorescence ratio did it give?
Answer: 1.01

Question: CATGAGAGGG was tested. Which switch fluorescence ratio did it give?
Answer: 1.02

Question: CATGAGCTTG was tested. Which switch fluorescence ratio did it give?
Answer: 0.981

Question: For CATGAGTGGG, which switch fluorescence ratio is on record?
Answer: 0.967

Question: How did the switch fluorescence ratio turn out when CATGATCAAA was run?
Answer: 0.979

Question: CATGATCCTC was tested. Which switch fluorescence ratio did it give?
Answer: 1.09

Question: For CATGATGGTG, which switch fluorescence ratio is on record?
Answer: 0.99

Question: With CATGATGTAT as the sequence, how does the switch fluorescence ratio read?
Answer: 0.969

Question: CATGATTACT was tested. Which switch fluorescence ratio did it give?
Answer: 0.987

Question: With CATGATTTTT as the sequence, how does the switch fluorescence ratio read?
Answer: 1.07

Question: How did the switch fluorescence ratio turn out when CATGCAGCCC was run?
Answer: 1.82

Question: For CATGCATATG, which switch fluorescence ratio is on record?
Answer: 0.936

Question: Which switch fluorescence ratio does the source give for CATGCCCTCC here?
Answer: 1.2

Question: CATGCGAGA was tested. Which switch fluorescence ratio did it give?
Answer: 1.02

Question: CATGCGCATT was tested. Which switch fluorescence ratio did it give?
Answer: 1.67

Question: How did the switch fluorescence ratio turn out when CATGCTAATT was run?
Answer: 0.966

Question: For CATGCTATC, which switch fluorescence ratio is on record?
Answer: 1.07

Question: Which switch fluorescence ratio does the source give for CATGGACGCT here?
Answer: 1.02

Question: CATGGACTTC was tested. Which switch fluorescence ratio did it give?
Answer: 1.06

Question: For CATGGATCTA, which switch fluorescence ratio is on record?
Answer: 0.979

Question: CATGGCATTC was tested. Which switch fluorescence ratio did it give?
Answer: 1.24

Question: For CATGGCCAGT, which switch fluorescence ratio is on record?
Answer: 0.997

Question: For CATGGGAGGC, which switch fluorescence ratio is on record?
Answer: 1.08

Question: With CATGGGTGGC as the sequence, how does the switch fluorescence ratio read?
Answer: 0.948
